About 1,200 (0.92%) of roughly 130,000 compounds were called active. This list was built around the results that the source calls inconclusive (neither active nor inactive); the mix of calls is not that of the screen. The call rests on the fitted dose curve; in most records, active means well fitted cell-killing curve with a large enough effect; inconclusive means small, poorly fitted or top-dose-only effect; inactive means no such curve, though single readings can be large or run the other way. Where the call is inconclusive, the potency comes from a doubtful curve fit.
Assay: qHTS Screen for Compounds that Selectively Target Cancer Cells with p53 Mutations: Cytotoxicity of p53ts Cells at the Permissive Temperature; further: nearly all actives have a fitted effect of over 55% in size
Settings: H1299-p53A138V at 32C, ATP luminescence viability, 24 h; series mostly up to 46.1 µM
Procedure, shortened: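 Viability by ATPlite luminescence after 24 h compound treatment (up to 46 uM) at the permissive 32C. Cells are H1299 carrying p53 A138V. Scale runs from DMSO basal to 100 uM tamoxifen as full kill; AC50 from Hill fits.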
For `COc1ccc(C(CNC(=O)c2ccc(C)cc2)N2CCOCC2)cc1` (centres undefined), the Potency was inconclusive: 3.16 µM [cytotoxic, single point]. In the case of `Cc1cc(N2CCN(C)CC2)nc2ccc(NC(=O)Nc3ccccc3)cc12`, the Potency is reported as inconclusive: 12.6 µM [cytotoxic, partial curve]. With `Cn1c(-c2ccc(N)cc2)nc2ccccc21` the Potency was inconclusive: 10 µM [cytotoxic, partial curve]. With `Cc1cccc(NC(=O)c2ccccc2O)c1C` the Potency was inconclusive: 10 µM [cytotoxic, partial curve]. With `COc1cccc(C2=CC(c3ccccc3F)n3ncc(C(=O)Nc4ccc(C)cc4)c3N2)c1` (centres undefined) the Potency was “inactive”. For `O=C(NCc1ccccc1)c1nc(S(=O)(=O)Cc2ccc(F)cc2)ncc1Cl`, the Potency was active: 15.8 µM. With `O=S(=O)(NCCc1csc2nc(-c3ccccc3)nn12)c1cccs1` the Potency was “inactive”. In the case of `O=C(CCCCn1c(=O)[nH]c2ccccc2c1=O)N1CCN(c2cccc(C(F)(F)F)c2)CC1`, the Potency is reported as inconclusive: 31.6 µM [cytotoxic, single point]. With `COc1cccc(-c2cc(C(=O)Nn3cnnc3)c3ccccc3n2)c1` the Potency was active: 3.98 µM. For `COc1ccc(-c2nnc(SC(C)C(=O)Nc3ccc4c(c3)OCCO4)o2)cc1` (centres undefined), the Potency was active: 15.8 µM. For `CCS(=O)(=O)N1CCC(C(=O)c2ccc(Cl)cc2)CC1`, the Potency was inconclusive: 0.794 µM [cytotoxic, full curve, poor fit]. In the case of `Cc1ccc(Nc2nc3nonc3[nH]c2=O)cc1`, the Potency is reported as inconclusive: 10 µM [cytotoxic, partial curve]. For `CCOc1cc(-c2nc(-c3ccccc3OC)no2)cc(OCC)c1OCC`, the Potency was “inactive”. With `COc1ccccc1-c1nnc(NC(C)=O)s1` the Potency was inconclusive: 10 µM [cytotoxic, partial curve]. In the case of `CCc1ccc(-c2cn3nc(CC)sc3n2)cc1`, the Potency is reported as active: 12.6 µM. In the case of `COc1ccc(-c2nc(CS(=O)CC(=O)NCCc3ccc(Cl)cc3)c(C)o2)cc1OC` (centres undefined), the Potency is reported as “inactive”. For `CCc1ccc(-n2nc(CO)c(C(=O)NC)n2)cc1`, the Potency was inconclusive: 15.8 µM [cytotoxic, partial curve]. With `Cc1ccc(CS(=O)(=O)c2ncc(Cl)c(C(=O)Nc3nnc(C(C)C)s3)n2)cc1` the Potency was active: 12.6 µM. For `CCOc1ccc(/C=C/C(=O)Nc2ccc3nc(N(CC)CC)cc(C)c3c2)cc1OC`, the Potency was inconclusive: 35.5 µM [cytotoxic, single point]. For `N#CCCn1c(=O)c(-c2ccc(F)cc2)nc2cnc(Oc3cccc(Cl)c3)nc21`, the Potency was inconclusive: 12.6 µM [cytotoxic, single point]. In the case of `c1cn2cc(-c3ccc4c(c3)OCO4)nc2s1`, the Potency is reported as active: 15.8 µM. In the case of `CSc1ccc(CCNC(=O)CCCn2c(=O)c3cccn3c3ccccc32)cc1`, the Potency is reported as inconclusive: 22.4 µM [cytotoxic, single point]. In the case of `O=C1c2[nH]nc(-c3ccc(F)cc3)c2C(c2ccccc2F)N1c1ccccc1` (centres undefined), the Potency is reported as inconclusive: 35.5 µM [cytotoxic, single point]. For `c1ccc(-c2ccc(-c3ccccn3)nn2)nc1`, the Potency was active: 12.6 µM. For `Cc1ccc2nc(-c3ccc(NC(=O)COc4ccc(Br)cc4Br)cc3)sc2c1`, the Potency was inconclusive: 10 µM [cytotoxic, partial curve]. In the case of `Cc1ccc(S(=O)(=O)Nc2ccc3nc(-c4cccc(Cl)c4)oc3c2)cc1`, the Potency is reported as inconclusive: 31.6 µM [cytotoxic, single point]. For `COc1ccc(CCNC(=O)C(C)n2nc(C)c3sc4ccccc4c3c2=O)c(OC)c1` (centres undefined), the Potency was inconclusive: 12.6 µM [cytotoxic, partial curve]. For `CCCOc1ccc(N2C(=O)CC(SCCN)C2=O)cc1` (centres undefined), the Potency was active: 12.6 µM. In the case of `CCOCCCNC(=O)c1ccc2c(=O)n(CCc3ccccc3)c(=O)[nH]c2c1`, the Potency is reported as inconclusive: 0.794 µM [cytotoxic, single point]. With `COC(=O)CSc1nc2cc(OC)ccc2cc1C#N` the Potency was inconclusive: 5.01 µM [cytotoxic, partial curve]. With `Cc1ccc(N2C(=O)C3C(C2=O)C2C=CC3C23CC3)cc1` (centres undefined) the Potency was inconclusive: 15.8 µM [cytotoxic, partial curve]. For `Cc1ccc(NS(=O)(=O)c2ccc3oc(=O)c4ncn(C)c4c3c2)cc1C`, the Potency was inconclusive: 10 µM [cytotoxic, partial curve]. For `C=CCn1c(SCC(=O)Nc2nc3ccccc3s2)nnc1-c1ccccc1O`, the Potency was inconclusive: 31.6 µM [cytotoxic, single point]. In the case of `Fc1ccccc1CSc1ncnc2c1oc1ccccc12`, the Potency is reported as active: 12.6 µM. In the case of `COc1cc(O)cc(/C=C/c2ccccc2)c1`, the Potency is reported as inconclusive: 10 µM [cytotoxic, partial curve]. In the case of `CCc1ccc(NC(=O)Cn2c(=O)n(-c3ccccc3C)c(=O)c3c2c2cc(OC)ccc2n3C)cc1`, the Potency is reported as inconclusive: 2.51 µM [cytotoxic, full curve]. In the case of `CCn1nnc(NC(=O)c2ccc(C(C)(C)C)cc2)n1`, the Potency is reported as active: 2.51 µM. In the case of `Cc1ccc2nc(-c3cccc(NC(=O)c4ccco4)c3)[nH]c2c1`, the Potency is reported as inconclusive: 12.6 µM [cytotoxic, single point]. In the case of `O=C1C(C=NCCCN2CCCC2=O)=C(O)c2ccccc21`, the Potency is reported as inconclusive: 10 µM [cytotoxic, partial curve]. For `COCCCNC(=O)c1ccc2c(c1)OCO2`, the Potency was “inactive”. For `Cc1cc2oc(=O)c(CC(=O)O)c(C)c2c2occ(-c3ccccc3)c12`, the Potency was inconclusive: 12.6 µM [cytotoxic, single point]. With `CC(NC(=O)Nc1ccc2c(c1)OCO2)C1CCCO1` (centres undefined) the Potency was inconclusive: 12.6 µM [cytotoxic, partial curve]. In the case of `CC1=C(c2ccc(C(C)C)cc2)S(=O)(=O)N=C1N1CCC(C(=O)Nc2ccc(C)cc2)CC1`, the Potency is reported as inconclusive: 15.8 µM [cytotoxic, single point]. With `O=C(Nc1onc2c1CCCC2)c1ccccc1` the Potency was inconclusive: 12.6 µM [cytotoxic, partial curve]. With `CC(=O)NC(CC(=O)O)C(=O)O` (centres undefined) the Potency was “inactive”. In the case of `N=c1n(Cc2ccccc2)c2ccccc2n1CC(O)COc1ccccc1` (centres undefined), the Potency is reported as “inactive”. With `COc1ccc(C(=O)COc2cccc(NC(=O)c3ccco3)c2)cc1` the Potency was “inactive”. With `COc1ccc(NC(=O)CCS(=O)(=O)c2nc(-c3ccc4c(c3)OCO4)cc(C(F)(F)F)n2)cc1OC` the Potency was inconclusive: 31.6 µM [cytotoxic, single point]. With `CCCCN(C)C(=O)CSc1c2c(nc3ccc(Cl)cc13)CCCC2` the Potency was inconclusive: 17.8 µM [cytotoxic, single point]. With `O=C(c1cccs1)N1CCn2c1nc1ccccc12` the Potency was inconclusive: 7.94 µM [cytotoxic, partial curve]. For `Cc1noc(C)c1CN1C(=O)NC(Cc2ccccc2)(Cc2ccccc2)C1=O`, the Potency was “inactive”. For `CCn1c2ccccc2c2nnc(N3CCN(c4ccc(F)cc4)CC3)nc21`, the Potency was “inactive”. In the case of `COc1ccccc1CNC(=O)Cc1c(C)c2c(cc(C)c3c(C)c(C)oc32)oc1=O`, the Potency is reported as “inactive”. With `CCC(c1nnnn1Cc1ccco1)N(Cc1cc2cc(C)cc(C)c2[nH]c1=O)CC1CCCO1` (centres undefined) the Potency was “inactive”. With `CC(C)Cn1c(=O)c2ccccc2n2c(CCC(=O)N3CCN(c4cccc(Cl)c4)CC3)nnc12` the Potency was inconclusive: 31.6 µM [cytotoxic, single point]. In the case of `COC(=O)C1C(=O)c2c([nH]c(C(=O)OC3CCCC3C)c2C)CC1C` (centres undefined), the Potency is reported as inconclusive: 12.6 µM [cytotoxic, single point]. In the case of `OC[C@H]1O[C@@H](n2cnc3cncnc32)[C@H](O)[C@@H]1O`, the Potency is reported as inconclusive: 20 µM [cytotoxic, single point]. In the case of `N#Cc1cc2c(=O)n3ccccc3nc2n(CCCn2ccnc2)c1=N`, the Potency is reported as “inactive”. With `COc1ccc(-c2nc3ccccc3s2)cc1O` the Potency was active: 5.01 µM. For `CN(Cc1ccco1)c1cc(-c2ccc3c(c2)OCO3)ncn1`, the Potency was inconclusive: 10 µM [cytotoxic, partial curve]. In the case of `CN(C)c1ccc(-c2nc(NCc3cccnc3)c3ccccc3n2)cc1`, the Potency is reported as active: 5.01 µM. In the case of `COc1ccc(Br)cc1C(=O)Nc1cccc2ccc(C)nc12`, the Potency is reported as “inactive”. In the case of `CCCCCCCC/C=C\CCCCCCCC(=O)NCCc1ccc(O)c(O)c1`, the Potency is reported as inconclusive: 12.6 µM [cytotoxic, single point]. For `CCOC(=O)c1ccc(NC(=O)C2CC(=O)NC(=Nc3ccc(C)c(C)c3)S2)cc1` (centres undefined), the Potency was inconclusive: 31.6 µM [cytotoxic, single point]. With `CCOc1ccccc1CNC(=O)CCn1c(=O)c2cccn2c2ccc(F)cc21` the Potency was “inactive”. In the case of `CN(C)c1ccc(-n2cc3c(=O)n(C)c(=O)n(C)c3c2)cc1`, the Potency is reported as “inactive”. For `Cc1ccc(CNc2nc(-c3ccco3)nn2S(C)(=O)=O)cc1`, the Potency was inconclusive: 14.1 µM [cytotoxic, partial curve, poor fit]. For `COc1ccc(NC(=O)C2COc3ccccc3C2)cc1Cl` (centres undefined), the Potency was “inactive”. In the case of `COc1ccc(-c2nnc(N(C)C(=O)c3cccnc3)s2)cc1`, the Potency is reported as inconclusive: 10 µM [cytotoxic, partial curve]. For `COc1ccccc1NC(=O)CSc1nnc(-c2ccccc2C)o1`, the Potency was inconclusive: 10 µM [cytotoxic, partial curve]. With `COc1ccc2[nH]c(=S)[nH]c2c1` the Potency was “inactive”. In the case of `CCc1ccc(CNC(=O)c2c3c(nc4ccccc24)C(=O)N(C2CCCCC2)C3)cc1`, the Potency is reported as inconclusive: 31.6 µM [cytotoxic, single point]. With `Cc1c(/C=C/C(=O)c2ccc(O)cc2)cnn1C` the Potency was inconclusive: 10 µM [cytotoxic, partial curve]. With `CC(=O)c1ccc(N2CCN(S(=O)(=O)c3ccc4c(c3)CC(C)N4C(=O)C3CCC3)CC2)cc1` (centres undefined) the Potency was “inactive”.

Source: PubChem BioAssay AID924 (National Center for Advancing Translational Sciences (NCATS), 2007)
Potency means the concentration at half of the fitted maximal effect; tags describe the fitted curve by direction and shape.
